In PubChem BioAssay AID504467 (National Center for Advancing Translational Sciences (NCATS), 2011):
The campaign covered roughly 330,000 compounds. About 7,700 (2.3%) were called active. Inconclusive results (about 26%) are left out. The call rests on the fitted dose curve; in most records, active means well fitted inhibition curve with a large enough effect; inconclusive means small, poorly fitted or top-dose-only effect, or effect the other way; inactive means flat fitted curve, though single readings scatter. This is a selection; strong and weak results do not stand in their true shares.

Test: qHTS screen for small molecules that inhibit ELG1-dependent DNA repair in human embryonic kidney (HEK293T) cells expressing luciferase-tagged ELG1; further: nearly all actives have a fitted effect of over 55% in size
Conditions: HEK293T ELG1-luciferase reporter, luminescence, 16 h, DNA damage induced by 5-fluorouridine; series mostly up to 46.1 µM; activity change, negative = inhibition: at the top concentration
Excerpt: NIH Molecular Libraries Probe Production Network [MLPCN] NIH Chemical Genomics Center [NCGC] MLPCN Grant: 1 R03 MH092164-01 Assay Provider: Kyungjae Myung, NHGRI, NIH Keywords: MLPCN, qHTS, NCGC, genotoxicity, cancer Assay Overview: Cancer cells divide rapidly compared to normal cells in the body. During cell division, cancer cells need to duplicate their genome by DNA replication. The failure of genome duplication leads to cancer cells' death. Therefore, inhibitors of DNA replication could specifically kill cancer cells. Based on this concept, many chemotherapeutic agents were developed and have been used to treat cancer patients. However, there are a limited number of agents available in the clinical setting, and some of those that do exist have low efficacy and severe side effects. Therefore, if we can find the compounds that effectively block DNA replication either by directly damaging DNA or by inhibiting other cellular mechanisms, the options for cancer treatment will be broadened. With this in mind, we developed a quantitative high-throughput ELG1-luciferase reporter gene assay. Small molecules that specifically block ELG1 function in response to DNA damage can be identified by monitoring the suppression of luciferase activity. Since ELG1 defines a pathway for repairing DNA damage, agents blocking ELG1 function can be used to sensitize cancer cells to chemotherapeutic agents whose mechanism of action involves the induction of DNA damage.
Assay Protocol Summary: For genotoxicity screening, 2,000 cells in 4 uL/well were dispensed into white, solid-bottom 1536-well plates using a solenoid-based dispenser. Following transfer of 1 uL 5-Fluorouridine and 23 nL compound or DMSO vehicle by a pin tool, the plates were incubated 16 hr at 37 °C and 5% CO2. 5 ul ONE-Glo (Promega) was then added to each plate and following a 30 min incubation at room temperature, luciferase activity was quantified on a ViewLux CCD-based plate reader.
On the % scale 0 is the no-effect control and ±100 the full control effect; potency means the concentration at half of the fitted maximal effect.

| Compound | activity change, negative = inhibition | Potency |
| --- | --- | --- |
| C=C(C)C1CC=C(C)/C(=N\NC(=O)CNc2ccccc2OC)C1 (centres undefined) | inactive: -9.23% |  |
| Cc1cc(C)cc(NCCC#N)c1 | inactive: -3.94% |  |
| O=C(C1=C[C@H](C2CCCCC2)C[C@H](OCc2ccc(CO)cc2)O1)N1CCN(Cc2ccc3c(c2)OCO3)CC1 | inactive: -13% |  |
| Cc1cc(C)nc(NS(=O)(=O)c2ccc(N/C=C\C(=O)c3ccc(Cl)cc3)cc2)n1 | inactive: -8.96% |  |
| COc1ccc2c(c1)OC[C@H]1[C@H]2N2C(=O)CN(CCc3c[nH]c4ccccc34)C(=O)[C@@]2(C)[C@H]1c1ccccc1 |  | active: 5.8 µM |
| COc1cc(NC(=O)CN2c3ccccc3CC2C)cc(OC)c1OC (centres undefined) |  | active: 16.4 µM |
| CC(=O)N1c2ccccc2[C@H](C)[C@H]1C | inactive: 27.8% |  |
| CCO[C@H]1OC(C(=O)NC2CC2)=C[C@@H](c2ccc(C(F)(F)F)cc2)[C@@H]1CCCO | inactive: 1.46% |  |
| O=C(C1=C[C@H](c2ccc(C(F)(F)F)cc2)C[C@H](OCCCCO)O1)N1CCN(Cc2ccccc2)CC1 | inactive: 1.73% |  |
| Cc1sc(N2C(=O)C3C4C=CC(C4)C3C2=O)c(C#N)c1C (centres undefined) | inactive: -0.627% |  |
| COC(=O)[C@@]12CCCCN1[C@H](c1ccc(-c3ccc(F)cc3)cc1)[C@@H]1C(=O)N(C)C(=O)[C@@H]12 | inactive: -29% |  |
| O=C(NC(Cc1ccccc1)C(=O)O)/C(=C\c1ccc(F)cc1)NC(=O)c1ccccc1 (centres undefined) | inactive: 6.78% |  |
| CC(=O)C[C@@H](O)CC(=O)[C@@H]1OC(=O)CC/C=C\Cc2ccccc21 | inactive: 2% |  |
| N=c1c2c(n(Cc3ccc(Cl)cc3)c3c1CCC3)CCC2 |  | active: 2.91 µM |
| CCOC(=O)[C@@H]1[C@H]2COc3cc(OC)ccc3[C@H]2N2C(=O)N(c3ccccc3)C(=O)[C@]12C | inactive: -12.6% |  |
| CN1CCN(C(=O)C2=C[C@H](c3ccccc3)C[C@H](OCc3ccc(CO)cc3)O2)CC1 | inactive: -1.55% |  |
| O=C(C[C@@H]1C/C=C/CC[C@@H](Cc2ccc(F)cc2)C(=O)OCCNC1=O)N[C@H](CO)Cc1ccccc1 | inactive: -16.9% |  |
| Cc1ccc(S(=O)(=O)N2CCOCC2)cc1C(=O)Nc1ccc(-c2cn3ccsc3n2)cc1 |  | active: 18.4 µM |
| O=C(CSc1ccc2nnc(-c3ccccc3)n2n1)N1CCCc2ccccc21 |  | active: 25.9 µM |
| c1ccc(-c2nnc(-c3ccccn3)nc2NC2CCCCC2)cc1 |  | active: 18.4 µM |
| COc1ccc2[nH]c3c4c(ccc3c2c1)C(=O)C=CC4=O |  | active: 16.4 µM |
| O=C(Cn1c[n+](CC(=O)c2ccc([N+](=O)[O-])cc2)cn1)c1ccc([N+](=O)[O-])cc1 | inactive: -10.4% |  |

| Compound | activity change, negative = inhibition | Potency |
| --- | --- | --- |
| CC(=O)C[C@H](O)CC(=O)[C@H]1OC(=O)CC/C=C\Cc2ccccc21 | inactive: 16.2% |  |
| COc1ccc(S(=O)(=O)N2CCC(C(=O)Nc3ccccc3C)CC2)c2cccnc12 |  | active: 18.4 µM |
| COc1ccc(S(=O)(=O)N(C)C[C@H]2Oc3c(NC(=O)Nc4c(C)noc4C)cccc3C(=O)N([C@@H](C)CO)C[C@H]2C)cc1 | inactive: -4.15% |  |
| Cc1cccc(Nc2nc(N)c([N+](=O)[O-])c(N3CCCC(C)C3)n2)c1 (centres undefined) |  | active: 25.9 µM |
| Oc1ccc2ccccc2c1N=Nc1ccc(F)cc1 | inactive: -6.38% |  |
| O=C(CSc1nnc(SCc2ccccc2)s1)N/N=C/C=C/c1ccco1 | inactive: 11.2% |  |
| CC(C)[N+]1(C)[C@@H]2CC[C@@H]1CC(OC(=O)C(CO)c1ccccc1)C2 (some centres undefined) | inactive: 16.9% |  |
| CCOC(=O)c1cnc(-n2nc(C)cc2C)nc1Nc1ccc(O)cc1 |  | active: 4.11 µM |
| CC(C)(C)OC(=O)C[C@@H]1C/C=C\C[C@@H](CC(=O)N[C@@H](CO)Cc2ccccc2)C(=O)N2CCC[C@@H]2COC1=O | inactive: -4.16% |  |
| COC(=O)[C@H]1C[C@@H]1[C@H](NC(=O)c1ccccc1)c1ccccc1 | inactive: 4.61% |  |
| COc1ccc(CCNc2nc(-c3ccc(O)cc3)cs2)cc1OC |  | active: 23.1 µM |
| C[C@H](CO)N1C[C@H](C)[C@@H](CN(C)Cc2ccncc2)Oc2c(NC(=O)C3CC3)cccc2C1=O | inactive: 18% |  |
| CC/C=C(\NC(C)=O)c1ccccc1 | inactive: 6.48% |  |
| C[C@@H](C(=O)Nc1ccc2ccccc2c1)[C@@H]1C[C@@]1(C)[C@@H](NC(=O)c1cccnc1)c1ccccc1 | inactive: -3.05% |  |
| Nc1ncnc2nc[nH]c12 | inactive: 2.24% |  |
| CCO[C@H]1OC(C(=O)NCc2ccccc2)=C[C@@H](C2CC2)[C@@H]1CCCO | inactive: 0% |  |
| C[C@H](CO)N1C[C@H](C)[C@@H](CN(C)C(=O)NC2CCCCC2)Oc2c(NS(=O)(=O)c3ccc(F)cc3)cccc2C1=O | inactive: 17.9% |  |
| CCOc1ccc(N2CC(C(=O)NCCN3C(=O)S/C(=C\c4cccnc4)C3=O)CC2=O)cc1 (centres undefined) | inactive: -17.4% |  |
| C[C@H]1CC[C@@]2(O[C@H](CCO)C[C@@H](O)[C@@H]2O)O1 | inactive: 25.2% |  |
| CC(NCCc1ccc(O)cc1)C(O)c1ccc(O)cc1 (centres undefined) | inactive: 19.6% |  |
| C=CCn1c(SCC(=O)c2cccs2)nc2sc(CC)cc2c1=O |  | active: 20.6 µM |
| O=C(NCC1CCCO1)/C(=C\c1ccc(Cl)cc1)NC(=O)c1ccccc1 (centres undefined) | inactive: 16.8% |  |
